Screen size: about 48,000 compounds; about 550 (1.1%) were called active. About 4% were inconclusive and are not listed. No stated cut-off is given here; in the data, active means potency below about 15 µM; inconclusive means mostly about 16 µM to 33 µM; inactive means weaker than that. This is one part of the list.
Potency means the concentration at half of the fitted maximal effect.

UniProt P04062, sequence (P04062 whole entry, looked up): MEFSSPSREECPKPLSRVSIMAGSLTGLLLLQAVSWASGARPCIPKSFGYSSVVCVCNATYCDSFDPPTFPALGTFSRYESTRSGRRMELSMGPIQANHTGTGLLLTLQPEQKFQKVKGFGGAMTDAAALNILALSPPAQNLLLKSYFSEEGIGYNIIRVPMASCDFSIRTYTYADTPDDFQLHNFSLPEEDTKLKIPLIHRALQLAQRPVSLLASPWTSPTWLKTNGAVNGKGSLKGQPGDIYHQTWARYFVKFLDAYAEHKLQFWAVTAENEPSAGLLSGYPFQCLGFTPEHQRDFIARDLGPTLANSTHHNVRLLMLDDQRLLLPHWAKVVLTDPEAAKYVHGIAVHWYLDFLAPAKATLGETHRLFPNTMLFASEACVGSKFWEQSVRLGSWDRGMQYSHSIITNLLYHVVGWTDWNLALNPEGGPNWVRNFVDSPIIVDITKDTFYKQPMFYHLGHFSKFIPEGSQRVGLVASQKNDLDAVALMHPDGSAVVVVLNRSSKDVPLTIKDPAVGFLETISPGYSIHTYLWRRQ

In this experiment the target is Lysosomal acid glucosylceramidase (Homo sapiens) (UniProt P04062). Kind of experiment: Glucocerebrosidase.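 Further: the screen sought inhibitors.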 The conditions noted are these: purified enzyme, resorufin glucoside fluorescence (screen aimed at inhibitors), 20 min. In a few lines:
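Wild-type enzyme at 0.2 nM final in 50mM citric acid/KH2PO4, 10mM sodium taurocholate, 0.01% tween-20, pH 5.9, with resorufin beta-D-glucopyranoside at 30 uM final. Compounds titrated, 20 min at RT, red fluorescence read; AC50 from titration.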
In the case of `COc1ccc(CCNC(=O)CCN2C(=O)COc3ccccc32)cc1OC`, the Potency is inactive: > 76.9 µM.

As for `CCOc1ccc(NC(=O)CCC(=O)n2nc(C)cc2C)cc1`, the Potency is inactive: > 76.9 µM.

As to `O/N=C1\CCC\C1=C/c1ccco1`, the Potency is inactive: > 76.9 µM.

As to `COc1ccc(C(=O)c2ccc(N(C)C)cc2)c(OC)c1`, the Potency is inactive: > 76.9 µM.

In the case of `O=S(=O)(c1ccc(-c2nnc(SCc3ccccc3)o2)cc1)N1CCCC1`, the Potency was inactive: > 76.9 µM.

Take `CC1(C)Cc2ccccc2-c2nnc(SCc3ccc(C#N)cc3)n21`: the Potency is inactive: > 76.9 µM.

Regarding `COc1ccc(C(=O)COC(=O)CCn2nnc(-c3cccs3)n2)cc1`, the Potency was inactive: > 76.9 µM.

As to `COc1ccc(C(=O)COC(=O)CN2C(=O)C3C4C=CC(C4)C3C2=O)cc1` (stereo not given), the Potency is inactive: > 76.9 µM.

For `CCCCSc1nnc([C@@H](NC(=O)OC(C)(C)C)C(C)C)o1`, the Potency is inactive: > 76.9 µM.

`O=C(Nc1cnn(Cc2ccc(Cl)cc2Cl)c1)c1cc(-c2cccs2)on1`: the Potency was inactive: > 76.9 µM.

Consider `Cn1ncc(C#N)c1/N=C/N1CCOCC1`, for which the Potency was inactive: > 76.9 µM.

On to `O=C(Nc1ccccc1)Nc1ccccc1C(=O)NCc1ccco1`, for which the Potency is inactive: > 76.9 µM.

`Cc1ccc(CNC(=O)c2nnn(-c3cccc(C)c3)c2N)cc1`: the Potency is inactive: > 76.9 µM.

Turning to `Cc1cc(C)n(Cc2ccccc2Cl)n1`, the Potency was inactive: > 76.9 µM.

In the case of `Cn1c(N)c(C(=O)COC(=O)c2ccc3c(c2)OCCO3)c(=O)n(C)c1=O`, the Potency is inactive: > 76.9 µM.

`Cc1n[nH]c(=O)nc1NCc1ccc(Cl)cc1`: the Potency is inactive: > 76.9 µM.

Consider `COc1cc(OC)cc(-n2nnnc2SCC(=O)NCc2ccc3c(c2)OCO3)c1`, for which the Potency is inactive: > 76.9 µM.

As to `O=C(c1c(Cl)nc2sccn12)N1CCCc2ccccc21`, the Potency is inactive: > 76.9 µM.

As for `COc1ccc(NC(=O)CN2c3cccc4cccc(c34)S2(=O)=O)cc1`, the Potency is inactive: > 76.9 µM.

As for `Cc1nn2c3c(cnc2c1-c1ccccc1)C(=O)CC(c1ccco1)C3` (stereo not given), the Potency is inactive: > 76.9 µM.

In the case of `CCn1c(COc2ccccc2)nnc1SCC(=O)Nc1cc(OC)ccc1OC`, the Potency was inactive: > 76.9 µM.

For the compound `Clc1c(-c2nnc3n2CCC3)sc2ccccc12`, the Potency is inactive: > 76.9 µM.

Regarding `Cc1ccccc1C(=O)c1cccn1CC(=O)NCC1CCCO1` (stereo not given), the Potency is inactive: > 76.9 µM.

For the compound `COc1ccc(Nc2ncccc2C(=O)Nc2ccccc2)cc1`, the Potency was inactive: > 76.9 µM.

On to `O=C1c2ccccc2C(=O)N1OCc1ccccc1`, for which the Potency was inactive: > 76.9 µM.

Take `N#Cc1nc(Cc2ccccc2)oc1NCc1cccnc1`: the Potency was inactive: > 76.9 µM.

On to `Nc1nc(NCc2ccco2)nn1-c1ccccc1`, for which the Potency was inactive: > 76.9 µM.

On to `CCC(CC)C(=O)Nc1cc(C(=O)OC)cc(C(=O)OC)c1`, for which the Potency was inactive: > 76.9 µM.

Regarding `CCOc1ccccc1C1C(C#N)=C(SCC(=O)OC)NC(=O)C1C(=O)OC` (stereo not given), the Potency is inactive: > 76.9 µM.

Consider `CCc1ccc(NS(=O)(=O)c2cccs2)cc1`, for which the Potency is inactive: > 76.9 µM.

Turning to `N=c1nc(-c2ccccc2)ccn1O`, the Potency is inactive: > 76.9 µM.

As to `O=C(COc1cccc(NC(=O)c2ccco2)c1)c1ccc(F)cc1`, the Potency is inactive: > 76.9 µM.

Take `CCCCCOC(=O)Cn1c(N2CCCCCC2)nc2c1c(=O)[nH]c(=O)n2C`: the Potency was inactive: > 76.9 µM.

For `CCCCCC1CC(=O)N(Cc2ccccc2)C(=O)N1` (stereo not given), the Potency is inactive: > 76.9 µM.

Take `COc1ccc(NC(=O)CSc2nnc(-c3cccnc3)n2Cc2ccco2)c(OC)c1`: the Potency was inactive: > 76.9 µM.

With `COc1ccc(Nc2cc(=O)n(C3CCCCC3)c(=O)[nH]2)c(OC)c1`, the Potency was inactive: > 76.9 µM.

With `O=C(CSc1nnc(Cc2ccccc2)o1)NC1CC2CCC1C2` (stereo not given), the Potency is inactive: > 76.9 µM.

Regarding `Cc1ccc(S(=O)(=O)N(CC(O)CN2CCCC2)c2ccccc2)cc1` (stereo not given), the Potency is inactive: > 76.9 µM.

Regarding `CC(C)(C)Cc1nc(-c2ccccn2)no1`, the Potency was inactive: > 76.9 µM.

For `COc1ccccc1NC(=O)CCC(=O)Nc1ccccc1OC`, the Potency is inactive: > 76.9 µM.

As for `CCOc1ccc(-c2noc(-c3ccncc3)n2)cc1OCC`, the Potency is inactive: > 76.9 µM.

As to `Brc1cccc(C2CC(c3ccccc3)n3nnnc3N2)c1` (stereo not given), the Potency is inactive: > 76.9 µM.

In the case of `COc1ccc(/C(O)=C2/C(=O)C(=O)N(Cc3cccnc3)C2c2ccccn2)cc1` (stereo not given), the Potency was inactive: > 76.9 µM.

As to `CCOC(=O)CCCn1c(C)nc(=O)c(-c2ccccc2)c1C`, the Potency is inactive: > 76.9 µM.

As to `Cc1c(C(=O)O)oc2ccc(S(=O)(=O)NCCC3=CCCCC3)cc12`, the Potency was inactive: > 76.9 µM.

Turning to `Cc1cc(C)c2oc(=O)cc(CN3CCN(Cc4ccc5c(c4)OCO5)CC3)c2c1`, the Potency was inactive: > 76.9 µM.

Consider `Cc1cc(F)c(F)c(C(=O)NC2CC2)c1Cl`, for which the Potency is inactive: > 76.9 µM.

As to `CCOc1ccc(CCN2C(=O)CCC2(C)C(=O)NC(C)CC)cc1OCC` (stereo not given), the Potency was inactive: > 76.9 µM.

In the case of `O=S(=O)(Nc1cccc2cn[nH]c12)c1ccc(F)cc1`, the Potency is inactive: > 76.9 µM.

For `CCS(=O)(=O)N1Cc2ccccc2CC1C(=O)Nc1nc2ccccc2[nH]1` (stereo not given), the Potency was inactive: > 76.9 µM.

For `Cc1ccccc1C(=O)/C=C1\NC(=O)CS1`, the Potency was inactive: > 76.9 µM.

In the case of `Cc1ccc(-n2c(SCC(=O)N3CCOCC3)nnc2-c2ccncc2)cc1`, the Potency was inactive: > 76.9 µM.

With `O=c1c(-c2ccc3c(c2)OCCO3)coc2c(CN3CCOCC3)c(O)ccc12`, the Potency is inactive: > 76.9 µM.

Consider `Cc1cccc(Cn2c(=O)n(Cc3ccco3)c(=O)c3ccccc32)c1`, for which the Potency is inactive: > 76.9 µM.

For the compound `Cc1ccccc1OCC(O)Cn1c(=N)n(CCN2CCOCC2)c2ccccc21` (stereo not given), the Potency entry is “inactive”.

Take `O=C(NCCCc1ccccc1)C1CC(=O)N(c2ccc3c(c2)OCCO3)C1` (stereo not given): the Potency was inactive: > 76.9 µM.

`CS(=O)(=O)Nc1ccc(C(=O)NCC2CCCO2)cc1` (stereo not given): the Potency was inactive: > 76.9 µM.

Turning to `O=C(O)c1ccc(-c2ccccc2C(F)(F)F)o1`, the Potency was inactive: > 76.9 µM.

In the case of `NC(=O)C1(N2CCCCC2)CCN(C(=O)CSc2nc(C(F)(F)F)cc(=O)[nH]2)CC1`, the Potency is inactive: > 76.9 µM.

Take `CCCCNC(=O)CCSc1nc2nc(C)cc(C)n2n1`: the Potency is inactive: > 76.9 µM.

Values taken from PubChem BioAssay AID360 (National Center for Advancing Translational Sciences (NCATS), 2006).
